Reference: the supplement of paper PMC10126150
Sequences with one replicate were seen in a single cluster, so their values are uncertain.

These sequences were tested on ATP (assay: switch fluorescence ratio, 500 uM ATP over buffer (Cy3 cluster intensity, sum of 5 cycles each) (fold (ratio)); higher = stronger signal-on switching upon ATP binding; sequences stand for … in TCGTCGGCAGCGTCAGATGTGTATAAGAGACAGTTTTTTTTTTTTTTTTTTTTTTTTT…TC). Conditions: aptamer strand: ATP DNA aptamer (quencher-CACCTGGGGGAGTATTGCGGAGGAAGG + anchor), 100 nM annealed; ATP concentration: 500 uM; one replicate.
Method in brief: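 Exposure to 500 uM ATP lasted 15 min at 22 °C before imaging, and a selection-buffer image was taken beforehand, for Cy3-labelled switching-strand clusters on a modified Illumina MiSeq flow-cell annealed to 100 nM quencher-labelled ATP aptamer. Five buffer/ATP cycles were run with NaOH stripping and re-annealing between them. The fluorescence ratio per cluster is summed target-cycle over summed buffer-cycle Cy3 intensity, averaged per switch-domain sequence. Clusters outside 100-1000 RFU were excluded.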
TACATGACCT showed a switch fluorescence ratio of 1.15. TACATGTAAC was tested, and the switch fluorescence ratio was 1.03. TACATTTGTT showed a switch fluorescence ratio of 1.02. TACCAAGTGA was tested, and the switch fluorescence ratio was 1.03. Sequence TACCATATG has a switch fluorescence ratio of 1.05. In the case of TACCATGCGA, the switch fluorescence ratio is reported as 1.04. TACCATTGTT was tested, and the switch fluorescence ratio was 1.01. Work on TACCCACGGT yielded a switch fluorescence ratio of 1.24. TACCCCCCGA was tested, and the switch fluorescence ratio was 1.3. TACCCGCTGG gave a switch fluorescence ratio of 1.08. In the case of TACCCGGGTG, the switch fluorescence ratio is reported as 5.42. TACCCGGTCC was tested, and the switch fluorescence ratio was 1.79. Work on TACCCTCGTT yielded a switch fluorescence ratio of 0.991. TACCCTTAGT gave a switch fluorescence ratio of 1.02. TACCGGGTGC was tested, and the switch fluorescence ratio was 1.05. TACCGGGTTA showed a switch fluorescence ratio of 1.04. TACCGTCAAT gave a switch fluorescence ratio of 1.83. Work on TACCGTTGTT yielded a switch fluorescence ratio of 0.985. TACCTCGGCC showed a switch fluorescence ratio of 1.16. TACCTGTCGA showed a switch fluorescence ratio of 1. TACCTTAACA was tested, and the switch fluorescence ratio was 1.07. Work on TACCTTTA yielded a switch fluorescence ratio of 1.06. For TACCTTTGAA, the switch fluorescence ratio was 1.05. With TACCTTTTTT the switch fluorescence ratio was 1.02. For TACGAAAGAG, the switch fluorescence ratio was 1.14. TACGAACCCA showed a switch fluorescence ratio of 1.38. Work on TACGAAGAAT yielded a switch fluorescence ratio of 0.99. TACGAAGGTT gave a switch fluorescence ratio of 0.995. Sequence TACGAGCATG has a switch fluorescence ratio of 1.21. With TACGATTTCA the switch fluorescence ratio was 1.01. With TACGCACACC the switch fluorescence ratio was 3.02. TACGCATATA showed a switch fluorescence ratio of 2.51. With TACGCCGGGG the switch fluorescence ratio was 1.01. With TACGCGAACT the switch fluorescence ratio was 1.21. TACGCGACGA showed a switch fluorescence ratio of 1.04. In the case of TACGCTATAT, the switch fluorescence ratio is reported as 2.36. TACGCTGTCC was tested, and the switch fluorescence ratio was 1.1. TACGCTTATT gave a switch fluorescence ratio of 1.03. TACGCTTGAC showed a switch fluorescence ratio of 1.69. For TACGGAGGGG, the switch fluorescence ratio was 1.01. With TACGGCACGT the switch fluorescence ratio was 1.01. Sequence TACGGCCGGT has a switch fluorescence ratio of 1.02. TACGGGATAG was tested, and the switch fluorescence ratio was 1.14. TACGGGGCAA showed a switch fluorescence ratio of 1.33. Sequence TACGGGGCTC has a switch fluorescence ratio of 1.03. TACGGGGTCG was tested, and the switch fluorescence ratio was 1.09. Work on TACGGTCGCA yielded a switch fluorescence ratio of 1.07. Work on TACGGTGCTG yielded a switch fluorescence ratio of 0.834. With TACGTAAAAA the switch fluorescence ratio was 1.05. Sequence TACGTTTGTT has a switch fluorescence ratio of 1.01. Work on TACTAATCCT yielded a switch fluorescence ratio of 1.1. In the case of TACTAATGA, the switch fluorescence ratio is reported as 1.02. TACTACAGAA gave a switch fluorescence ratio of 1.02. With TACTACGGGA the switch fluorescence ratio was 1.09. In the case of TACTAGAAGT, the switch fluorescence ratio is reported as 1.03. TACTAGCACT was tested, and the switch fluorescence ratio was 1.15. Sequence TACTAGTCGG has a switch fluorescence ratio of 0.918. TACTATACTC gave a switch fluorescence ratio of 1.29. TACTCACCA was tested, and the switch fluorescence ratio was 1.24. TACTCAGCGG was tested, and the switch fluorescence ratio was 1.5. TACTCATAAC was tested, and the switch fluorescence ratio was 1.04. For TACTCCATCT, the switch fluorescence ratio was 1.06. With TACTCCTGT the switch fluorescence ratio was 1.05. TACTCGTGTG gave a switch fluorescence ratio of 0.997. Sequence TACTGAAACC has a switch fluorescence ratio of 1.16. Sequence TACTGAGGAG has a switch fluorescence ratio of 1.03. With TACTGATACC the switch fluorescence ratio was 1.22. With TACTGCAATG the switch fluorescence ratio was 1.31. In the case of TACTGCCTTA, the switch fluorescence ratio is reported as 1.01. With TACTGCTTAG the switch fluorescence ratio was 1.01. For TACTGGCGGC, the switch fluorescence ratio was 1.05. Work on TACTGGGCTA yielded a switch fluorescence ratio of 1. For TACTGGTGTT, the switch fluorescence ratio was 1.03. For TACTTATTTT, the switch fluorescence ratio was 1.01. Work on TACTTGAAGC yielded a switch fluorescence ratio of 0.983. TACTTGAGG gave a switch fluorescence ratio of 1.02. TACTTGCGAT was tested, and the switch fluorescence ratio was 1.26. TACTTGGCAT was tested, and the switch fluorescence ratio was 1.12. Work on TACTTTTAAT yielded a switch fluorescence ratio of 1.04. Sequence TAGAAGGCAA has a switch fluorescence ratio of 1.1. In the case of TAGAAGTGAA, the switch fluorescence ratio is reported as 0.944. Work on TAGAAGTTAT yielded a switch fluorescence ratio of 1.04. Sequence TAGAATATTG has a switch fluorescence ratio of 1.01. For TAGAATGTTA, the switch fluorescence ratio was 0.979. TAGAATTTGT showed a switch fluorescence ratio of 0.966. With TAGACCACC the switch fluorescence ratio was 1.15. In the case of TAGACGCGAT, the switch fluorescence ratio is reported as 3.36. With TAGACGTGAC the switch fluorescence ratio was 1.23. Sequence TAGAGAAAAA has a switch fluorescence ratio of 1.01. For TAGAGAAGGA, the switch fluorescence ratio was 1.04. TAGAGATATG gave a switch fluorescence ratio of 1.01. With TAGAGATGTG the switch fluorescence ratio was 0.95. Sequence TAGAGCCTAC has a switch fluorescence ratio of 0.991. With TAGAGCGTAG the switch fluorescence ratio was 1. Sequence TAGAGGGTGA has a switch fluorescence ratio of 0.994. TAGAGGTTT gave a switch fluorescence ratio of 0.951. TAGAGTAACG was tested, and the switch fluorescence ratio was 1.08. With TAGATAATGT the switch fluorescence ratio was 0.979. Sequence TAGATATGCC has a switch fluorescence ratio of 1.03. Sequence TAGATATTCT has a switch fluorescence ratio of 0.979. Sequence TAGATGAACT has a switch fluorescence ratio of 1.02. Work on TAGATGCCAC yielded a switch fluorescence ratio of 1.03. TAGATGTTGC showed a switch fluorescence ratio of 1. TAGATTTGGT showed a switch fluorescence ratio of 1.05. With TAGCAATAAT the switch fluorescence ratio was 4. Work on TAGCACTCCT yielded a switch fluorescence ratio of 1.18. In the case of TAGCAGAACA, the switch fluorescence ratio is reported as 0.946. In the case of TAGCATGATC, the switch fluorescence ratio is reported as 1.1. With TAGCCACGCG the switch fluorescence ratio was 0.98. TAGCCAGGGT gave a switch fluorescence ratio of 1.03. Sequence TAGCCATTCT has a switch fluorescence ratio of 0.935. Work on TAGCCCACT yielded a switch fluorescence ratio of 1.03. In the case of TAGCCGGCGC, the switch fluorescence ratio is reported as 0.987. With TAGCCGTCTC the switch fluorescence ratio was 1.06. TAGCCTTGCA gave a switch fluorescence ratio of 0.974. For TAGCGACTAC, the switch fluorescence ratio was 3.15. In the case of TAGCGATCCC, the switch fluorescence ratio is reported as 1.19. TAGCGCCAGC showed a switch fluorescence ratio of 0.991. TAGCGCCGAC gave a switch fluorescence ratio of 1.03. Sequence TAGCGCGGTT has a switch fluorescence ratio of 0.991. Work on TAGCGCTGCT yielded a switch fluorescence ratio of 0.981. TAGCGTATGG showed a switch fluorescence ratio of 1.06. In the case of TAGCTAAACT, the switch fluorescence ratio is reported as 0.993. With TAGCTCTACG the switch fluorescence ratio was 0.999. Work on TAGCTGG yielded a switch fluorescence ratio of 0.97. TAGCTGTTC showed a switch fluorescence ratio of 1.1. TAGCTTAACC gave a switch fluorescence ratio of 1.07. TAGCTTAGGG was tested, and the switch fluorescence ratio was 0.967. Work on TAGCTTCTGT yielded a switch fluorescence ratio of 1.05. Sequence TAGGAAGCTT has a switch fluorescence ratio of 1.06. For TAGGAAGGGA, the switch fluorescence ratio was 1. In the case of TAGGACCTGC, the switch fluorescence ratio is reported as 0.966. In the case of TAGGACGGGC, the switch fluorescence ratio is reported as 0.995. TAGGACTAGG was tested, and the switch fluorescence ratio was 0.964. Work on TAGGACTGGC yielded a switch fluorescence ratio of 1.03. TAGGACTGTT was tested, and the switch fluorescence ratio was 0.997. In the case of TAGGAGAACA, the switch fluorescence ratio is reported as 0.985. TAGGAGAATC showed a switch fluorescence ratio of 0.91. TAGGAGAATT was tested, and the switch fluorescence ratio was 0.977. Sequence TAGGAGCATG has a switch fluorescence ratio of 1.02. Work on TAGGATAGCC yielded a switch fluorescence ratio of 0.981. For TAGGATCACA, the switch fluorescence ratio was 0.959. With TAGGCCAC the switch fluorescence ratio was 0.982. Sequence TAGGCCTTCA has a switch fluorescence ratio of 1.34. Work on TAGGCGCGCA yielded a switch fluorescence ratio of 1.01. In the case of TAGGCGGTAC, the switch fluorescence ratio is reported as 1.95. With TAGGCGTGTA the switch fluorescence ratio was 0.999. TAGGCTACGA gave a switch fluorescence ratio of 1.02. Sequence TAGGCTTCC has a switch fluorescence ratio of 2.38. TAGGGATCAC showed a switch fluorescence ratio of 0.958. TAGGGATCTG gave a switch fluorescence ratio of 0.997. TAGGGCCCCA was tested, and the switch fluorescence ratio was 1.03. Sequence TAGGGCCTAC has a switch fluorescence ratio of 1.06. For TAGGGCGGCC, the switch fluorescence ratio was 1.04. Work on TAGGGGAAGT yielded a switch fluorescence ratio of 0.977. TAGGGGCTTA was tested, and the switch fluorescence ratio was 1.02. TAGGGTACCC gave a switch fluorescence ratio of 1. In the case of TAGGGTTGAC, the switch fluorescence ratio is reported as 1.04. With TAGGGTTTCC the switch fluorescence ratio was 1.02. Work on TAGGGTTTT yielded a switch fluorescence ratio of 1. In the case of TAGGTAGGT, the switch fluorescence ratio is reported as 1.01. Sequence TAGGTATGGT has a switch fluorescence ratio of 0.996. Work on TAGGTCGGAC yielded a switch fluorescence ratio of 0.987. With TAGGTCTTTT the switch fluorescence ratio was 1.06. For TAGGTGATAA, the switch fluorescence ratio was 1.03. Work on TAGGTTACCG yielded a switch fluorescence ratio of 1.01. TAGGTTCGCT was tested, and the switch fluorescence ratio was 1.01. Sequence TAGTAAAACT has a switch fluorescence ratio of 1.02. For TAGTAAGTGA, the switch fluorescence ratio was 1. TAGTAATAGG showed a switch fluorescence ratio of 1.06. TAGTAATATA was tested, and the switch fluorescence ratio was 1.01. TAGTATAGAT showed a switch fluorescence ratio of 0.968. TAGTATATTG showed a switch fluorescence ratio of 0.969. For TAGTATCGGT, the switch fluorescence ratio was 0.958. With TAGTCAATTG the switch fluorescence ratio was 0.995. Work on TAGTCAGTTC yielded a switch fluorescence ratio of 0.991. TAGTCATCT showed a switch fluorescence ratio of 1.05. In the case of TAGTCCTGTG, the switch fluorescence ratio is reported as 0.98. TAGTCGAGTG was tested, and the switch fluorescence ratio was 0.978. Work on TAGTCGGTCG yielded a switch fluorescence ratio of 1.02. For TAGTCTGCCT, the switch fluorescence ratio was 1.04. TAGTGAAAAG gave a switch fluorescence ratio of 1. Sequence TAGTGAAAGG has a switch fluorescence ratio of 0.993. Work on TAGTGAGTGA yielded a switch fluorescence ratio of 1.01. Sequence TAGTGATAG has a switch fluorescence ratio of 1.06. With TAGTGATGGA the switch fluorescence ratio was 1.01. Work on TAGTGCCGGA yielded a switch fluorescence ratio of 1. For TAGTGCGCCC, the switch fluorescence ratio was 1.04. Sequence TAGTGGAACA has a switch fluorescence ratio of 0.965. With TAGTGGGAAC the switch fluorescence ratio was 1.02. TAGTGGGATG gave a switch fluorescence ratio of 1.01. Work on TAGTGGTCGC yielded a switch fluorescence ratio of 1. Sequence TAGTGTTTAC has a switch fluorescence ratio of 1.01. With TAGTGTTTG the switch fluorescence ratio was 1. Work on TAGTTAAATT yielded a switch fluorescence ratio of 0.949. With TAGTTAGATA the switch fluorescence ratio was 0.989. TAGTTCAAAA gave a switch fluorescence ratio of 1.02. Work on TAGTTGCGGG yielded a switch fluorescence ratio of 1.05. In the case of TAGTTGTGG, the switch fluorescence ratio is reported as 0.98. Sequence TAGTTTAAAA has a switch fluorescence ratio of 1. With TAGTTTCATC the switch fluorescence ratio was 1.
